{"source": "the supplement of paper PMC8728848", "test_in_all_cases": "glycan array binding signal (z-score within array); higher = stronger binding", "conditions_in_all_cases": "glycan notation: IUPAC condensed, linker removed", "key": {"Fuc(a1-2)Gal": {"biological_target": "Fuc(a1-2)Gal", "in_short": "(§1)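 Arrays were curated from the Consortium for Functional Glycomics database, 3228 in total, and kept only where the protein sequence was available. Binding is expressed as a within-array Z-score. This score was averaged across arrays of the same protein sequence at different concentrations or buffers and across linkers, and negative values can be read as non-binding.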"}, "Fuc(a1-2)Gal(b1-3)GalNAc": {"biological_target": "Fuc(a1-2)Gal(b1-3)GalNAc", "in_short": "as §1"}, "[1]": {"biological_target": "Fuc(a1-2)Gal(b1-3)GalNAc(a1-3)[Fuc(a1-2)]Gal(b1-4)Glc", "in_short": "as §1"}, "[2]": {"biological_target": "Fuc(a1-2)Gal(b1-3)GalNAc(a1-3)[Fuc(a1-2)]Gal(b1-4)GlcNAc", "in_short": "as §1"}, "[3]": {"biological_target": "Fuc(a1-2)Gal(b1-3)GalNAc(b1-3)Gal", "in_short": "as §1"}, "[4]": {"biological_target": "Fuc(a1-2)Gal(b1-3)GalNAc(b1-3)Gal(a1-4)Gal(b1-4)Glc", "in_short": "as §1"}, "[5]": {"biological_target": "Fuc(a1-2)Gal(b1-3)GalNAc(b1-4)[Neu5Ac(a2-3)]Gal(b1-4)Glc", "in_short": "as §1"}, "Fuc(a1-2)Gal(b1-3)GlcNAc": {"biological_target": "Fuc(a1-2)Gal(b1-3)GlcNAc", "in_short": "as §1"}, "[6]": {"biological_target": "Fuc(a1-2)Gal(b1-3)GlcNAc(b1-2)Man(a1-3)[Fuc(a1-2)Gal(b1-3)GlcNAc(b1-2)Man(a1-6)]Man(b1-4)GlcNAc(b1-4)GlcNAc", "in_short": "as §1"}, "[7]": {"biological_target": "Fuc(a1-2)Gal(b1-3)GlcNAc(b1-2)Man(a1-3)[Fuc(a1-2)Gal(b1-3)GlcNAc(b1-2)Man(a1-6)]Man(b1-4)GlcNAc(b1-4)[Fuc(a1-6)]GlcNAc", "in_short": "as §1"}, "[8]": {"biological_target": "Fuc(a1-2)Gal(b1-3)GlcNAc(b1-3)Gal(b1-4)Glc", "in_short": "as §1"}, "[9]": {"biological_target": "Fuc(a1-2)Gal(b1-3)GlcNAc(b1-3)GalNAc", "in_short": "as §1"}, "[10]": {"biological_target": "Fuc(a1-2)Gal(b1-3)GlcNAc(b1-3)[Fuc(a1-2)Gal(b1-3)GlcNAc(b1-6)]GalNAc", "in_short": "as §1"}, "[11]": {"biological_target": "Fuc(a1-2)Gal(b1-3)GlcNAc(b1-3)[Gal(b1-4)GlcNAc(b1-6)]Gal(b1-4)Glc", "in_short": "as §1"}, "[12]": {"biological_target": "Fuc(a1-2)Gal(b1-3)GlcNAc(b1-3)[Neu5Ac(a2-6)Gal(b1-4)GlcNAc(b1-6)]Gal(b1-4)Glc", "in_short": "as §1"}, "[13]": {"biological_target": "Fuc(a1-2)Gal(b1-3)GlcNAc6S", "in_short": "as §1"}, "[14]": {"biological_target": "Fuc(a1-2)Gal(b1-3)[Fuc(a1-4)]GlcNAc", "in_short": "as §1"}, "[15]": {"biological_target": "Fuc(a1-2)Gal(b1-3)[Fuc(a1-4)]GlcNAc(b1-2)Man(a1-3)[Fuc(a1-2)Gal(b1-3)[Fuc(a1-4)]GlcNAc(b1-2)Man(a1-3)]Man(b1-4)GlcNAc(b1-4)GlcNAc", "in_short": "as §1"}, "[16]": {"biological_target": "Fuc(a1-2)Gal(b1-3)[Fuc(a1-4)]GlcNAc(b1-2)Man(a1-3)[Fuc(a1-2)Gal(b1-3)[Fuc(a1-4)]GlcNAc(b1-2)Man(a1-6)]Man(b1-4)GlcNAc(b1-4)[Fuc(a1-6)]GlcNAc(b1-4)[Fuc(a1-6)]GlcNAc", "in_short": "as §1"}, "[17]": {"biological_target": "Fuc(a1-2)Gal(b1-3)[Fuc(a1-4)]GlcNAc(b1-3)[Fuc(a1-3)[Gal(b1-4)]GlcNAc(b1-6)]Gal(b1-4)Glc", "in_short": "as §1"}, "[18]": {"biological_target": "Fuc(a1-2)Gal(b1-3)[Fuc(a1-4)]GlcNAc(b1-3)[Gal(b1-4)GlcNAc(b1-6)]Gal(b1-4)Glc", "in_short": "as §1"}, "Fuc(a1-2)Gal(b1-4)Glc": {"biological_target": "Fuc(a1-2)Gal(b1-4)Glc", "in_short": "as §1"}, "Fuc(a1-2)Gal(b1-4)Glc6S": {"biological_target": "Fuc(a1-2)Gal(b1-4)Glc6S", "in_short": "as §1"}, "Fuc(a1-2)Gal(b1-4)GlcNAc": {"biological_target": "Fuc(a1-2)Gal(b1-4)GlcNAc", "in_short": "as §1"}, "[19]": {"biological_target": "Fuc(a1-2)Gal(b1-4)GlcNAc(b1-2)Man", "in_short": "as §1"}, "[20]": {"biological_target": "Fuc(a1-2)Gal(b1-4)GlcNAc(b1-2)Man(a1-3)[Fuc(a1-2)Gal(b1-4)GlcNAc(b1-2)Man(a1-6)]Man(b1-4)GlcNAc(b1-4)GlcNAc", "in_short": "as §1"}, "[21]": {"biological_target": "Fuc(a1-2)Gal(b1-4)GlcNAc(b1-2)Man(a1-3)[Fuc(a1-2)Gal(b1-4)GlcNAc(b1-2)Man(a1-6)]Man(b1-4)GlcNAc(b1-4)[Fuc(a1-6)]GlcNAc", "in_short": "as §1"}, "[22]": {"biological_target": "Fuc(a1-2)Gal(b1-4)GlcNAc(b1-2)[Fuc(a1-2)Gal(b1-4)GlcNAc(b1-4)]Man(a1-3)[Fuc(a1-2)Gal(b1-4)GlcNAc(b1-2)Man(a1-6)]Man(b1-4)GlcNAc(b1-4)GlcNAc", "in_short": "as §1"}, "[23]": {"biological_target": "Fuc(a1-2)Gal(b1-4)GlcNAc(b1-3)Gal(b1-4)GlcNAc", "in_short": "as §1"}, "[24]": {"biological_target": "Fuc(a1-2)Gal(b1-4)GlcNAc(b1-3)Gal(b1-4)GlcNAc(b1-2)Man(a1-3)[Fuc(a1-2)Gal(b1-4)GlcNAc(b1-3)Gal(b1-4)GlcNAc(b1-2)Man(a1-6)]Man(b1-4)GlcNAc(b1-4)GlcNAc", "in_short": "as §1"}}, "note": "Some of the results follow."}
{"binder": "F17-L (Escherichia coli) (protein) GPDDYVPSQIAVNTSTLPGVVIGPADAHTYPRVIGELAGTSNQYVFNGGAIALMRGKFTPALPKIGSITYTFHQGNSRDSSDFDIYDIGVSGLGIIIGMAGYWPATPLVPINSSGIYIDPVGANTNPNTYNGATASFGARLFVAFVATGRLPNGYITIPTRQLGTILLEAKRTSLNNKGLTAPVMLNGGRIQVQSQTHHHHHH", "values": [{"measurement": "glycan array binding signal (z-score)", "setting": "Fuc(a1-2)Gal", "value": -0.125}, {"measurement": "glycan array binding signal (z-score)", "setting": "Fuc(a1-2)Gal(b1-3)GalNAc", "value": -0.139}, {"measurement": "glycan array binding signal (z-score)", "setting": "[1]", "value": -0.165}, {"measurement": "glycan array binding signal (z-score)", "setting": "[2]", "value": -0.082}, {"measurement": "glycan array binding signal (z-score)", "setting": "[3]", "value": -0.136}, {"measurement": "glycan array binding signal (z-score)", "setting": "[4]", "value": -0.143}, {"measurement": "glycan array binding signal (z-score)", "setting": "[5]", "value": -0.14}, {"measurement": "glycan array binding signal (z-score)", "setting": "Fuc(a1-2)Gal(b1-3)GlcNAc", "value": -0.129}, {"measurement": "glycan array binding signal (z-score)", "setting": "[6]", "value": 0.253}, {"measurement": "glycan array binding signal (z-score)", "setting": "[7]", "value": 0.17}, {"measurement": "glycan array binding signal (z-score)", "setting": "[8]", "value": 1.54}, {"measurement": "glycan array binding signal (z-score)", "setting": "[9]", "value": -0.144}, {"measurement": "glycan array binding signal (z-score)", "setting": "[10]", "value": 0.108}, {"measurement": "glycan array binding signal (z-score)", "setting": "[11]", "value": -0.125}, {"measurement": "glycan array binding signal (z-score)", "setting": "[12]", "value": -0.061}, {"measurement": "glycan array binding signal (z-score)", "setting": "[13]", "value": -0.097}, {"measurement": "glycan array binding signal (z-score)", "setting": "[14]", "value": -0.231}, {"measurement": "glycan array binding signal (z-score)", "setting": "[15]", "value": -0.049}, {"measurement": "glycan array binding signal (z-score)", "setting": "[16]", "value": -0.089}, {"measurement": "glycan array binding signal (z-score)", "setting": "[17]", "value": -0.044}, {"measurement": "glycan array binding signal (z-score)", "setting": "[18]", "value": -0.028}, {"measurement": "glycan array binding signal (z-score)", "setting": "Fuc(a1-2)Gal(b1-4)Glc", "value": -0.198}, {"measurement": "glycan array binding signal (z-score)", "setting": "Fuc(a1-2)Gal(b1-4)Glc6S", "value": -0.146}, {"measurement": "glycan array binding signal (z-score)", "setting": "Fuc(a1-2)Gal(b1-4)GlcNAc", "value": -0.107}, {"measurement": "glycan array binding signal (z-score)", "setting": "[19]", "value": 0.101}, {"measurement": "glycan array binding signal (z-score)", "setting": "[20]", "value": -0.001}, {"measurement": "glycan array binding signal (z-score)", "setting": "[21]", "value": 0.377}, {"measurement": "glycan array binding signal (z-score)", "setting": "[22]", "value": -0.006}, {"measurement": "glycan array binding signal (z-score)", "setting": "[23]", "value": -0.098}, {"measurement": "glycan array binding signal (z-score)", "setting": "[24]", "value": 0.361}]}
